# About 2,200 (0.71%) of roughly 310,000 compounds showed an effect of 50% or more. The effect is printed as a negative number. Some of the results follow.
# Target: human ether-à-go-go-related gene (hERG) potassium channel (human, UniProt Q12809)
# Experiment: primary screen, population patch clamp on CHO cells stably expressing hERG
# Chain of human ether-à-go-go-related gene (hERG) potassium channel (Q12809 whole entry, looked up): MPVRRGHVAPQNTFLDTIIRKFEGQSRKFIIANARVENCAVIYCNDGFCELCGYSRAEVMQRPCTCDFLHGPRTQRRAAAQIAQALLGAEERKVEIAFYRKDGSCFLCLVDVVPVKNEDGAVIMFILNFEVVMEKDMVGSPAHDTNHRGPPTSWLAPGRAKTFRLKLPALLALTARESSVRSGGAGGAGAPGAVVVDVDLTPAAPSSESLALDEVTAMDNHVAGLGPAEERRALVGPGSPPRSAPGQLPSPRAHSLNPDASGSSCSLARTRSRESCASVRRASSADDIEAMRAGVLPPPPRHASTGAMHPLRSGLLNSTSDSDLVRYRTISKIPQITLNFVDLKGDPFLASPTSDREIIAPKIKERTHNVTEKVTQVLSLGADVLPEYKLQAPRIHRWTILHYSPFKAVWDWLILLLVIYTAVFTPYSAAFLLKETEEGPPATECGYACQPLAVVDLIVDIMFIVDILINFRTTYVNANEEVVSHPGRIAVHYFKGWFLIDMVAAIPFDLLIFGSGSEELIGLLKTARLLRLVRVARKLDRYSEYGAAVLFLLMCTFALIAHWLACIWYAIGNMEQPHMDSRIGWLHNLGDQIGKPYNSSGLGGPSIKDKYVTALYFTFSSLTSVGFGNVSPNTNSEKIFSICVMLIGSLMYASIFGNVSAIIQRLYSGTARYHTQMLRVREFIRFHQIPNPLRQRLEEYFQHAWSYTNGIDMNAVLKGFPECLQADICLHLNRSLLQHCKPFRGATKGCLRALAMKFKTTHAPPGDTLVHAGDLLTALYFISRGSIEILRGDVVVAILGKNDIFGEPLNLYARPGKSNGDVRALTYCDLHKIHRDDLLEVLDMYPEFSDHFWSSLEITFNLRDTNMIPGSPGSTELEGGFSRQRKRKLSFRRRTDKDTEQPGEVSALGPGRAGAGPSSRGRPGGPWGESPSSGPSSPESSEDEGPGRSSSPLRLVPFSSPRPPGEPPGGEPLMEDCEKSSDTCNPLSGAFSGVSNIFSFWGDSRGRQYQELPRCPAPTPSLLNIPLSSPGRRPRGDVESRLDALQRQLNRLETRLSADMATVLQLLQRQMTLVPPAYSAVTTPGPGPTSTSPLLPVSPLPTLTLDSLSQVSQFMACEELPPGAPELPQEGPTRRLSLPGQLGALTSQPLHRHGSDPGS
row,SMILES,"hERG current change (%, negative = inhibition) at 1uM [%]"
1,N=c1c(S(=O)(=O)c2ccccc2)cc2c(=O)n3ccccc3nc2n1CCCN1CCOCC1,-42.5
2,COc1cc(/C=C2\SC(N)=NC2=O)cc(Br)c1O,-2.35
3,C=CCn1c2[n+](c3ccccc3c1=O)CCCCC2.[I-],-7.36
4,COc1ccc(-c2c(C#N)c(SCc3c(C)noc3C)nc3c2C(=O)CC(C)(C)C3)cc1,7.35
5,Nc1nc(-c2ccc(Oc3ccccc3)cc2)c(CC(=O)O)s1,1.25
6,Cc1ccc(C)c(N2CCN(C(=O)c3ccc(CS(=O)(=O)c4ccccc4C)o3)CC2)c1,-11.8
7,Cc1nc2c(sc(=S)n2Cc2ccco2)c(=O)n1CC(=O)Nc1cc(F)ccc1F,9.47
8,CCc1nc(Nc2ccncc2)c2oc3ccccc3c2n1.Cl,-9.07
9,Cc1cc(C)nc(NC(=O)Cc2cccs2)n1,0.635
10,CC1CCN(CCCCOc2ccc(Br)cc2)CC1,-30.4
11,CCOC(=O)c1cnc2cc(C)nn2c1C,4.13
12,Cc1ccc(C(=O)Nc2cc3c(cc2N2CCCCC2)n(C)c(=O)n3C)cc1,17.2
13,COC(=O)c1cc(Br)c(=O)n(-c2ccc(F)cc2)c1,-70.1
14,O=C(CSc1nncn1-c1ccccc1)c1c[nH]c2ccccc12,17.1
15,COc1ccccc1C(=O)Nc1cc(C)ccc1NC(=O)c1ccco1,0.153
16,CC(C)NC(=O)c1ccc(N2CC3CC(C2)c2cccc(=O)n2C3)c([N+](=O)[O-])c1 (stereo not drawn),4.18
17,O=C(c1sc2cc(F)ccc2c1Cl)N1CCN(c2cccc(Cl)c2)CC1,0.771
18,Cc1cc(C)n2c(SCC(=O)NCc3ccco3)nnc2n1,16
19,O=C(NNC(=O)C12CC3CC(CC(C3)C1)C2)c1csc(N2CCOCC2)n1,7.88
20,CC(C)NC(=O)Nc1ccc(Br)cc1Cl,19
21,Cc1ccc(OCC(=O)n2nc(C)cc2C)c(Br)c1,4.1
22,CC(C)(C)c1ccc(C(=O)N2CCC(C(=O)NCCC3=CCCCC3)CC2)cc1,6.86
23,N#Cc1ccc(-c2cccnc2)nc1SCC(=O)c1ccccc1,6.32

row,SMILES,"hERG current change (%, negative = inhibition) at 1uM [%]"
1,CCC/S(C)=N/S(=O)(=O)c1ccc(C)cc1 (stereo not drawn),-3.88
2,Cc1ccccc1NC(=O)CN1CCN(C(=O)c2ccco2)CC1,5.5
3,CN(C)S(=O)(=O)c1ccc(C(=O)OCCN=C2NS(=O)(=O)c3ccccc32)cc1,10
4,CC1(C)CC(=O)C=C(NCCCN2CCCC2=O)C1,-0.322
5,COc1ccccc1-c1nnc(SCC(=O)OC(C)C)o1,7.42
6,NP(=O)(Oc1ccccc1Cl)Oc1ccccc1Cl,10.4
7,COc1ccc(C(=O)Nc2cccc(NC(=O)c3cccs3)c2)cc1OC,11.4
8,Cc1cc(C)c(-n2c(SCc3nc4ccccc4s3)n[nH]c2=O)c(C)c1,5.05
9,Cc1cc(C)cc(NC(=O)COc2ccc3c(C)c(Cc4ccccc4)c(=O)oc3c2)c1,5.12
10,O=C(COC(=O)CCc1ccc(S(=O)(=O)N2CCCCC2)cc1)Nc1ccc2c(c1)OCO2,10
11,COc1ccc(NC(=O)CSc2nnc(NC(=O)C3CCC3)s2)cc1,11.8
12,Cc1cc(C(=O)Nc2ccc(S(=O)(=O)N3CCCC3)cc2)cs1,-5.21
13,CN(C)C(=O)CNc1n[nH]c(=S)[nH]c1=O,10.7
14,COc1ccc(-c2nnc(SCC(=O)Nc3cccc(Cl)c3)o2)cc1,-21.1
15,Cc1cc(C)cc(NC(=O)c2ccccc2CC[N+](=O)[O-])c1,7.79
16,CCCC(=O)N(CCN(Cc1ccccc1)C(=O)CCC)Cc1ccccc1,-12.5
17,COc1ccc([C@H]2/C=C\CN(C(=O)[C@H](Cc3ccccc3)NC(=O)OCC3c4ccccc4-c4ccccc43)CC(=O)N2Cc2ccc(F)cc2)cc1,7.66
18,Cn1c(SC2C(=O)CC(C)(C)CC2=O)nnc1-c1ccco1,7.69
19,CN(CC(=O)Nc1ccc(F)cc1)C(=O)c1cccc(S(=O)(=O)N2CCN(c3ccc(F)cc3)CC2)c1,7.64
20,COC(=O)c1cc2c(ccn2-c2ccc(F)cc2)n1CC(C)C,17.4
21,COc1ccc(S(=O)(=O)N2CCC(C(=O)NCCC(=O)NCc3cccc(OC)c3)CC2)cc1,14.2
22,O=P(O)(CCc1ccccn1)CN1CCCCC1,0.435

# From paper PMC4336329 (PLoS ONE, 2015)
